Where “and” joins values, the source holds several entries; their conditions need not be identical. Equal entries are not always repeated. Where two headings read alike, the source gives them in different places.
Experiments:
YES1 = YES1 (Homo sapiens, UniProt P07947); assay: SelectScreen kinase profiling; format: biochemical; conditions: average of duplicate
RET = RET (Homo sapiens, UniProt P07949); assay: SelectScreen kinase profiling; format: biochemical; conditions: average of duplicate
ERBB4 (HER4) = ERBB4 (HER4) (Homo sapiens, UniProt Q15303); assay: SelectScreen kinase profiling; format: biochemical; conditions: average of duplicate
ABL2 (Arg) = ABL2 (Arg) (Homo sapiens, UniProt P42684); assay: SelectScreen kinase profiling; format: biochemical; conditions: average of duplicate
BLK = BLK (Homo sapiens, UniProt P51451); assay: SelectScreen kinase profiling / Z′-Lyte kinase assay
BTK [1] = target: T1, BTK (Homo sapiens, UniProt Q06187); assay: AssayQuant kinact/Ki profiling, PhosphoSens CSox-based kinetic assay; format: biochemical; design: purchased ThermoFisher / Life Technologies SelectScreen PV3363; conditions: 0.6 nM enzyme, 1000 µM ATP, one step fit
LYN B = LYN B (Homo sapiens, UniProt P07948); assay: SelectScreen kinase profiling; format: biochemical; conditions: average of duplicate
FLT4 (VEGFR3) = FLT4 (VEGFR3) (Homo sapiens, UniProt P35916); assay: SelectScreen kinase profiling; format: biochemical; conditions: average of duplicate
BTK [2] = target: T1, BTK; assay: SelectScreen kinase profiling / Z′-Lyte kinase assay
FGFR2 = FGFR2 (Homo sapiens, UniProt P21802); assay: SelectScreen kinase profiling; format: biochemical; conditions: average of duplicate
EGFR (ErbB1) T790M = EGFR (ErbB1) T790M (Homo sapiens, UniProt P00533, T790M); assay: SelectScreen kinase profiling; format: biochemical; conditions: average of duplicate
EGFR (ErbB1) T790M L858R = EGFR (ErbB1) T790M L858R (Homo sapiens, UniProt P00533, L858R/T790M); assay: SelectScreen kinase profiling; format: biochemical; conditions: average of duplicate
EGFR (ErbB1) L858R = EGFR (ErbB1) L858R (Homo sapiens, UniProt P00533, L858R); assay: SelectScreen kinase profiling; format: biochemical; conditions: average of duplicate
EGFR (ErbB1) d746-750 = EGFR (ErbB1) d746-750 (Homo sapiens, UniProt P00533, DEL746-750); assay: SelectScreen kinase profiling; format: biochemical; conditions: average of duplicate
ABL1 = ABL1 (Homo sapiens, UniProt P00519); assay: SelectScreen kinase profiling; format: biochemical; conditions: average of duplicate
[3] = test system: ibrutinib’s top 50 targets; assay: Single-point kinase profiling, count of kinases inhibited; format: biochemical; conditions: 1 μM, of 50 kinases
MAP2K2 (MEK2) = MAP2K2 (MEK2) (Homo sapiens, UniProt P36507); assay: SelectScreen kinase profiling; format: biochemical; conditions: average of duplicate
FGFR1 = FGFR1 (Homo sapiens, UniProt P11362); assay: SelectScreen kinase profiling; format: biochemical; conditions: average of duplicate
FGFR3 = FGFR3 (Homo sapiens, UniProt P22607); assay: SelectScreen kinase profiling; format: biochemical; conditions: average of duplicate
CSK = CSK (Homo sapiens, UniProt P41240); assay: SelectScreen kinase profiling; format: biochemical; conditions: average of duplicate
RET M918T = RET M918T (Homo sapiens, UniProt P07949, M918T); assay: SelectScreen kinase profiling; format: biochemical; conditions: average of duplicate
SRC = SRC (Homo sapiens, UniProt P12931); assay: SelectScreen kinase profiling / Z′-Lyte kinase assay
ZAK = ZAK (Homo sapiens, UniProt Q9NYL2); assay: SelectScreen kinase profiling; format: biochemical; conditions: average of duplicate
TNK2 (ACK) = TNK2 (ACK) (Homo sapiens, UniProt Q07912); assay: SelectScreen kinase profiling; format: biochemical; conditions: average of duplicate
KDR (VEGFR2) = KDR (VEGFR2) (Homo sapiens, UniProt P35968); assay: SelectScreen kinase profiling; format: biochemical; conditions: average of duplicate
FGR = FGR (Homo sapiens, UniProt P09769); assay: SelectScreen kinase profiling; format: biochemical; conditions: average of duplicate
CSNK1E (CK1 epsilon) = CSNK1E (CK1 epsilon) (Homo sapiens, UniProt P49674); assay: SelectScreen kinase profiling; format: biochemical; conditions: average of duplicate
LCK = LCK (Homo sapiens, UniProt P06239); assay: SelectScreen kinase profiling; format: biochemical; conditions: average of duplicate
[4] = BTK selectivity from IC50 values

UniProt P51451, sequence (P51451 whole entry): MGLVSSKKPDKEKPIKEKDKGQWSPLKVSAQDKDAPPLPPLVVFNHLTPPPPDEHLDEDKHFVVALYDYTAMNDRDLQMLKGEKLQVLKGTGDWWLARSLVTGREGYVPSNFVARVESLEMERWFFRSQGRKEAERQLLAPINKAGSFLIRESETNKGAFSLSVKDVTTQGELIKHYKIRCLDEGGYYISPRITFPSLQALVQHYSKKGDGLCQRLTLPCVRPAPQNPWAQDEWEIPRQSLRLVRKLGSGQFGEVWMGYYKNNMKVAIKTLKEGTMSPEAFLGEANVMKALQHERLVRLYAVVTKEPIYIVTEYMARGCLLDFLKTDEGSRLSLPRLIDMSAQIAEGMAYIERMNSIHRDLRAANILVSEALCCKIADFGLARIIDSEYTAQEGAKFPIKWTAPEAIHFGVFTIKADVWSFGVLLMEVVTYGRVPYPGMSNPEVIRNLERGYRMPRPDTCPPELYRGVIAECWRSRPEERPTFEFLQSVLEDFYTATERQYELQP
T1 sequence (Q06187 whole entry): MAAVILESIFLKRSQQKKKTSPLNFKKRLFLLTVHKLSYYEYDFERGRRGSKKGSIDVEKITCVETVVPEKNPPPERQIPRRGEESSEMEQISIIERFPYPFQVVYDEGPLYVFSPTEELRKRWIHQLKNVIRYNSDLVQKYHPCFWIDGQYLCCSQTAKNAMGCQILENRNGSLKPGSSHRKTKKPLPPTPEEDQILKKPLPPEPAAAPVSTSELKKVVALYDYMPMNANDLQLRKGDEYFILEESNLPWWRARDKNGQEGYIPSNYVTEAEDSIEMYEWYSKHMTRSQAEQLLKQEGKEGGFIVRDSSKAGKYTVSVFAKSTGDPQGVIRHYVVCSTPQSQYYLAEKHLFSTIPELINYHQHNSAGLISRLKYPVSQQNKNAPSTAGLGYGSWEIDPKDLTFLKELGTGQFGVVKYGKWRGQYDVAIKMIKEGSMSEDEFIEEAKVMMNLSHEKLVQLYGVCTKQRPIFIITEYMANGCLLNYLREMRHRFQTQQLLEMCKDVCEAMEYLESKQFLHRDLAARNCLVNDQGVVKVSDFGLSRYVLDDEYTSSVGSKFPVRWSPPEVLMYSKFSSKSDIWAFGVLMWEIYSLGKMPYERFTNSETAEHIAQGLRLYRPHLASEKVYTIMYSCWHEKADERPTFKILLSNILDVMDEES
UniProt P12931, sequence (P12931 whole entry): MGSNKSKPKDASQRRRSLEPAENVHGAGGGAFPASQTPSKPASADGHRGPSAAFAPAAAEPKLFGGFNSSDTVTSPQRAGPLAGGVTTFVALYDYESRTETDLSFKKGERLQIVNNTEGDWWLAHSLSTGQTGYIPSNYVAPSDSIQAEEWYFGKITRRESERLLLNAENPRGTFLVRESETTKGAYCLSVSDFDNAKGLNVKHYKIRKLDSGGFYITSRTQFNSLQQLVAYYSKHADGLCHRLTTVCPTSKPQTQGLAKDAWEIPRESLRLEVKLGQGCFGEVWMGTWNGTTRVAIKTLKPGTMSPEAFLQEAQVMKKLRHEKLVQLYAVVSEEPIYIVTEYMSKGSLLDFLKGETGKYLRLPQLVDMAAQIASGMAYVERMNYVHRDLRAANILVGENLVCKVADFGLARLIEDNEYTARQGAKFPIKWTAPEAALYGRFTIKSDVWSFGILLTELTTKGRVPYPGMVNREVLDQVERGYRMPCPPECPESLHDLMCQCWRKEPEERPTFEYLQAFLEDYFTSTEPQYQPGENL
UniProt P06239, sequence (P06239 whole entry): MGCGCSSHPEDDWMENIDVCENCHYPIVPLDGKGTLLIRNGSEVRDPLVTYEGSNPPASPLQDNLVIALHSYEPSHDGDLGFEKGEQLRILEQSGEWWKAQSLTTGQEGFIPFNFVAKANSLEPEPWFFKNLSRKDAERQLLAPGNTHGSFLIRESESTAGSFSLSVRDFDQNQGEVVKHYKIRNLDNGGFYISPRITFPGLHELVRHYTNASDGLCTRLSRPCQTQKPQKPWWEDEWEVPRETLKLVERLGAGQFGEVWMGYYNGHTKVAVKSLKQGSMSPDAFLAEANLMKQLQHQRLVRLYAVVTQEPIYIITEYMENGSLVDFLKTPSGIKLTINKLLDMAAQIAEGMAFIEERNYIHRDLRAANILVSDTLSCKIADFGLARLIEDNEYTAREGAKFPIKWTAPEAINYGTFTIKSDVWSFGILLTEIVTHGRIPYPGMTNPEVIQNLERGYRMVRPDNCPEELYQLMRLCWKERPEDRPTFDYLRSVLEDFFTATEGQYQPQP
UniProt P07947, sequence (P07947 whole entry): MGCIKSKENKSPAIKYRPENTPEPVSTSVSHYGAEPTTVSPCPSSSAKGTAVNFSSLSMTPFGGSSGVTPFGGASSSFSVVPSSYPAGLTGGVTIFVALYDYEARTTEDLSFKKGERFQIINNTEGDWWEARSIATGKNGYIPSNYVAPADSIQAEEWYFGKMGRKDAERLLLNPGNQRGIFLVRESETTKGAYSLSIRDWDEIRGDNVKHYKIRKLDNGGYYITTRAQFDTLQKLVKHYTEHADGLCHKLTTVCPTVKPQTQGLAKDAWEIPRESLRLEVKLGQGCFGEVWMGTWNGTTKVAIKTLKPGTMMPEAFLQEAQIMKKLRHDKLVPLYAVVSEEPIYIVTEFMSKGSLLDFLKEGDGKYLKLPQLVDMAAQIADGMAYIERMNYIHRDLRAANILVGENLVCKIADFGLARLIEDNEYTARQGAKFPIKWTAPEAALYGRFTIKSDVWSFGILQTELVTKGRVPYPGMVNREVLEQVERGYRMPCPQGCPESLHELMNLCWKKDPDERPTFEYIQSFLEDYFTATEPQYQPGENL
UniProt P09769, sequence (P09769 whole entry): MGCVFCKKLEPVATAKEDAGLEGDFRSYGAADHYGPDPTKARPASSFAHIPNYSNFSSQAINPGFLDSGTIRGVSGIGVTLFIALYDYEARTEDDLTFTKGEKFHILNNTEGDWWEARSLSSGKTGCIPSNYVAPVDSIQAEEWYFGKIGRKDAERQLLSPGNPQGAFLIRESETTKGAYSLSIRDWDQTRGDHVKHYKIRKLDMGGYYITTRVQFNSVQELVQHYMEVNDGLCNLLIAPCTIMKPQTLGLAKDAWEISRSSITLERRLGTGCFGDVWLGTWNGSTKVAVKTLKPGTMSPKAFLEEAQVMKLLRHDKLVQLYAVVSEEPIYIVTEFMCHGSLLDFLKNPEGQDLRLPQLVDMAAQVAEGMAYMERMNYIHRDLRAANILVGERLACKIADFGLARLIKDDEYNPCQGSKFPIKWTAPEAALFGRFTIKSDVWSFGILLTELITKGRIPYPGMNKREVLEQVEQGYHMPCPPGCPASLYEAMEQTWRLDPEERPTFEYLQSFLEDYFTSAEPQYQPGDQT
UniProt P42684, sequence (P42684 whole entry): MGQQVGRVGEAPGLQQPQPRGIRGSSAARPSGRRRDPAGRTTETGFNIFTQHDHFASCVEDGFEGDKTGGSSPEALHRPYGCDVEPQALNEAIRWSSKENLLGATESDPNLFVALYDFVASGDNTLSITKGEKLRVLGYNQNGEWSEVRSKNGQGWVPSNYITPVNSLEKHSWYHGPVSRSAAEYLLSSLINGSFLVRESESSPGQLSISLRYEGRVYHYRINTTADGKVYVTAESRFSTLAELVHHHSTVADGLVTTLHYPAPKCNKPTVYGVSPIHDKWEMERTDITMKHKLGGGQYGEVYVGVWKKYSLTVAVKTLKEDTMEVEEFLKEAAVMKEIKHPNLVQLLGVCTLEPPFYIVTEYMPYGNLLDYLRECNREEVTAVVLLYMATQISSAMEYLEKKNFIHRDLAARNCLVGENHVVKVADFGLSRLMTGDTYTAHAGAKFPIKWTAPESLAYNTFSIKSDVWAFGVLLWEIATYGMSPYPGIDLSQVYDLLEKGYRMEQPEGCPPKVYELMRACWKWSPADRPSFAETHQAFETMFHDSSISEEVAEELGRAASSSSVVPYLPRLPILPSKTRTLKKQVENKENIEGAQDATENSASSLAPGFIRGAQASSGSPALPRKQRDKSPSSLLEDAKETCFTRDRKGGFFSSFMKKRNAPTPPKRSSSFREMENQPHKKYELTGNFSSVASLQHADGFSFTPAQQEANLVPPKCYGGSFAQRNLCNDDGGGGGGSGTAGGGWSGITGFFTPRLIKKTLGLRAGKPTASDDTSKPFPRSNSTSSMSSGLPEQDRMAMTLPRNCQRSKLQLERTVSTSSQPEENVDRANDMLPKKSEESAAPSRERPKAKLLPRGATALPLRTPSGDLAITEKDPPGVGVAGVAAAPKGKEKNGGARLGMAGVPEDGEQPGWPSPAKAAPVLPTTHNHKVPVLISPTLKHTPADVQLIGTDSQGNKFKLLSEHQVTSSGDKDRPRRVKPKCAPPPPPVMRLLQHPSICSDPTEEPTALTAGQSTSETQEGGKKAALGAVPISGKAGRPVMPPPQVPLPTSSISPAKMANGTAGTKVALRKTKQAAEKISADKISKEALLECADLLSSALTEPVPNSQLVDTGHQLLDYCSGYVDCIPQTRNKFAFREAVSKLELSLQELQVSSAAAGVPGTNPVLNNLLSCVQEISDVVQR
UniProt P41240, sequence (P41240 whole entry): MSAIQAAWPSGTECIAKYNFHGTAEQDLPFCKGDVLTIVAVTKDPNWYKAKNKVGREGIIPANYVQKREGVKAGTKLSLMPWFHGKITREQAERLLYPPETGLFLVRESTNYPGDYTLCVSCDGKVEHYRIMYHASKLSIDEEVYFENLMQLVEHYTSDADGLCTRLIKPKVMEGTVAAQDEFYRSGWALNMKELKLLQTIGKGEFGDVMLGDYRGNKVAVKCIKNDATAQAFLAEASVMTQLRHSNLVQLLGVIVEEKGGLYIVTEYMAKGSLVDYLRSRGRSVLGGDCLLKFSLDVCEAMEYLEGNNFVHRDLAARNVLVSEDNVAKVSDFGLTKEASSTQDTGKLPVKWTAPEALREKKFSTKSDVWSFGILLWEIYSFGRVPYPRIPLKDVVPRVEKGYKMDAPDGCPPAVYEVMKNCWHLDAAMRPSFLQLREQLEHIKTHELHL

## C=CC(=O)N1CCC[C@@H](n2nc(-c3ccc(Oc4ccccc4)cc3C)c3c(N)ncnc32)C1 [Compound 2, (R)-1-(3-(4-amino-3-(2-methyl-4-phenoxyphenyl)-1H-pyrazolo[3,4-d]pyrimidin-1-yl)piperidin-1-yl)prop-2-en-1-one]
YES1
  inhibition at 1 µM: 98%
RET
  inhibition at 1 µM: 46%
ERBB4 (HER4)
  inhibition at 1 µM: 101%
ABL2 (Arg)
  inhibition at 1 µM: 23%
BLK
  inhibition at 1 µM: 107%
BLK; BLK IC50, Z′-Lyte, [ATP] Km app, 1 h incubation, duplicate
  IC50: 1.4 nM and 1.36 nM
BLK; BLK IC50 curve
  Hillslope: 1.06
BLK; [4]
  BLK, BTK/Kinase: 1.4 x
BLK; read-out: % Inhibition Point 1
  inhibition at 0.000495 µM: 23%
  inhibition at 0.00152 µM: 55%
  inhibition at 0.00457 µM: 74%
  inhibition at 0.0137 µM: 99%
  inhibition at 0.0412 µM: 94%
  inhibition at 0.123 µM: 101%
  inhibition at 0.37 µM: 98%
  inhibition at 1.11 µM: 97%
  inhibition at 3.33 µM: 101%
  inhibition at 10 µM: 97%
BLK; read-out: % Inhibition Point 2
  inhibition at 0.000495 µM: 23%
  inhibition at 0.00152 µM: 58%
  inhibition at 0.00457 µM: 75%
  inhibition at 0.0137 µM: 88%
  inhibition at 0.0412 µM: 96%
  inhibition at 0.123 µM: 99%
  inhibition at 0.37 µM: 101%
  inhibition at 1.11 µM: 102%
  inhibition at 3.33 µM: 103%
  inhibition at 10 µM: 99%
BTK [1]
  kinact/KI: 280000 M⁻¹ s⁻¹
LYN B
  inhibition at 1 µM: 92%
FLT4 (VEGFR3)
  inhibition at 1 µM: 21%
BTK [2]
  inhibition at 1 µM: 110%
BTK [2]; BTK IC50, Z′-Lyte, [ATP] Km app, 1 h incubation, duplicate
  IC50: 0.9 nM and 0.936 nM
BTK [2]; BTK IC50 curve
  Hillslope: 1.84
BTK [2]; read-out: % Inhibition Point 1
  inhibition at 0.000495 µM: 32%
  inhibition at 0.00152 µM: 73%
  inhibition at 0.00457 µM: 93%
  inhibition at 0.0137 µM: 99%
  inhibition at 0.0412 µM: 97%
  inhibition at 0.123 µM: 98%
  inhibition at 0.37 µM: 100%
  inhibition at 1.11 µM: 100%
  inhibition at 3.33 µM: 100%
  inhibition at 10 µM: 123%
BTK [2]; read-out: % Inhibition Point 2
  inhibition at 0.000495 µM: 39%
  inhibition at 0.00152 µM: 75%
  inhibition at 0.00457 µM: 95%
  inhibition at 0.0137 µM: 98%
  inhibition at 0.0412 µM: 98%
  inhibition at 0.123 µM: 100%
  inhibition at 0.37 µM: 98%
  inhibition at 1.11 µM: 97%
  inhibition at 3.33 µM: 101%
  inhibition at 10 µM: 96%
FGFR2
  inhibition at 1 µM: 54%
EGFR (ErbB1) T790M
  inhibition at 1 µM: 68%
EGFR (ErbB1) T790M L858R
  inhibition at 1 µM: 25%
EGFR (ErbB1) L858R
  inhibition at 1 µM: 51%
EGFR (ErbB1) d746-750
  inhibition at 1 µM: 94%
ABL1
  inhibition at 1 µM: 16%
[3]
  number of kinases inhibited to 10% of control: 17
MAP2K2 (MEK2)
  inhibition at 1 µM: 20%
FGFR1
  inhibition at 1 µM: 57%
FGFR3
  inhibition at 1 µM: 12%
CSK
  inhibition at 1 µM: 81%
RET M918T
  inhibition at 1 µM: 47%
SRC
  IC50: 33.5 nM
  inhibition at 1 µM: 95%
SRC; [4]
  SRC, BTK/Kinase: 37 x
SRC; SRC IC50 curve
  Hillslope: 0.99
SRC; read-out: % Inhibition Point 1
  inhibition at 0.000495 µM: 10%
  inhibition at 0.00152 µM: 17%
  inhibition at 0.00457 µM: 22%
  inhibition at 0.0137 µM: 41%
  inhibition at 0.0412 µM: 62%
  inhibition at 0.123 µM: 82%
  inhibition at 0.37 µM: 93%
  inhibition at 1.11 µM: 100%
  inhibition at 3.33 µM: 100%
  inhibition at 10 µM: 98%
SRC; read-out: % Inhibition Point 2
  inhibition at 0.000495 µM: 13%
  inhibition at 0.00152 µM: 15%
  inhibition at 0.00457 µM: 22%
  inhibition at 0.0137 µM: 35%
  inhibition at 0.0412 µM: 58%
  inhibition at 0.123 µM: 82%
  inhibition at 0.37 µM: 92%
  inhibition at 1.11 µM: 101%
  inhibition at 3.33 µM: 98%
  inhibition at 10 µM: 101%
ZAK
  inhibition at 1 µM: 2%
TNK2 (ACK)
  inhibition at 1 µM: 60%
KDR (VEGFR2)
  inhibition at 1 µM: 23%
FGR
  inhibition at 1 µM: 98%
CSNK1E (CK1 epsilon)
  inhibition at 1 µM: 35%
LCK
  inhibition at 1 µM: 100%
